{"source": "PubChem BioAssay AID463173", "about": "(ICCB-Longwood Screening Facility, Harvard Medical School, 2010)", "note": "Out of some 52,000 compounds screened, about 1,700 (3.3%) were called active. No stated cut-off is given here; in the data, active means survival mostly below about 52% (no sharp cut-off); inactive means mostly above about 56%. This is one part of the list.", "data": [{"system": "Wild type", "assay": "growth inhibition of S. aureus wild type versus tarO mutant, primary screen, teichoic acid synthesis inhibitors, RN4220, OD600 (AID 463173)", "conditions": "S. aureus RN4220 wild type/DeltatarO growth, OD600, 18 h, hits give low values, screened at 18.75 µg/mL (by protocol)", "values": [{"smiles": "Cc1ccccc1CCNC(=O)c1ccc2c(c1)nc1n2CCCCC1", "survival": "inactive: 84%"}, {"smiles": "Cc1cccc(-c2nc(CN3CCCC(C(=O)NCCc4ccc(Cl)cc4)C3)c(C)o2)c1", "note": "(stereo unspecified)", "survival": "inactive: 29%"}, {"smiles": "O=C(CCn1c(=O)c2sccc2n(Cc2ccc(F)cc2Cl)c1=O)NCc1ccc2c(c1)OCO2", "survival": "inactive: 92%"}, {"smiles": "O=C(Nc1sc2c(c1C(=O)NCC1CCCO1)CCCC2)c1cc(=O)c2ccccc2o1", "note": "(stereo unspecified)", "survival": "inactive: 80%"}, {"smiles": "Cc1ccc(-c2nc3ccccc3o2)cc1NC(=O)Cc1ccc(Cl)cc1", "survival": "inactive: 78%"}, {"smiles": "CCOC(=O)c1cccc(NC(=O)c2cnc3sc(N4CCOCC4)nn3c2=O)c1", "survival": "inactive: 97%"}, {"smiles": "Cc1ccc(-c2cc(C(=O)Oc3ccc(C#N)cc3)no2)cc1C", "survival": "inactive: 82%"}, {"smiles": "Cc1ccc2c(c1)c1c(c(=O)n(Cc3ccccc3)c(=O)n1CC(=O)Nc1ccccc1F)n2C", "survival": "inactive: 70%"}, {"smiles": "COCCNC(=O)CCCn1c(SCC(=O)NCc2ccc(C)cc2)nc2c(sc3ccccc32)c1=O", "survival": "inactive: 89%"}, {"smiles": "CCC(C)NC(=O)c1sc2nc(C)c(C(=O)Nc3ccc(C)cc3C)c(-c3ccc(NC(C)=O)cc3)c2c1N", "note": "(stereo unspecified)", "survival": "inactive: 72%"}, {"smiles": "O=C(O)c1ccc(Cn2c(SCc3ccc(F)cc3)nc3ccncc32)cc1", "survival": "inactive: 78%"}, {"smiles": "Cc1ccc2nc(NC(=O)CSc3nccn3Cc3ccc(F)cc3)sc2c1", "survival": "inactive: 80%"}, {"smiles": "COCCNc1ccc2cc(S(=O)(=O)N3CCCCC3)ccc2n1", "survival": "inactive: 56%"}, {"smiles": "Cc1nc2ncccn2c1-c1csc(NCc2ccco2)n1", "survival": "inactive: 101%"}, {"smiles": "CC(C)NC(=O)CN1C(=O)CCn2nc(-c3cn(C)c4ccccc34)cc21", "survival": "inactive: 73%"}, {"smiles": "COc1ccc(Cn2c(C(=O)O)c(CNCc3ccc(SC)cc3)c3ccc(OC)cc32)cc1", "survival": "inactive: 73%"}, {"smiles": "Cc1ccccc1OCCn1cc(/C=C(\\C#N)C(=O)NC2CC2)c2ccccc21", "survival": "inactive: 82%"}, {"smiles": "CCc1ccc(NS(=O)(=O)c2[nH]ncc2C(=O)OC)cc1", "survival": "inactive: 63%"}, {"smiles": "Cc1ccccc1Cn1c(=O)n(-c2ccc(Cl)cc2)c(=O)c2c3c(sc21)CCCC3", "survival": "inactive: 99%"}, {"smiles": "Cc1ccccc1NC(=O)c1sc2nc3c(cc2c1N)CN(Cc1ccccc1)CC3", "survival": "inactive: 82%"}, {"smiles": "CCCS(=O)(=O)N1CCC(C(=O)NCCOC)CC1", "survival": "inactive: 76%"}, {"smiles": "Cc1cc(F)ccc1NC(=O)C1CCC(CNS(=O)(=O)c2ccc3c(c2)CCCC(=O)N3)CC1", "note": "(stereo unspecified)", "survival": "inactive: 77%"}, {"smiles": "COc1ccc(OC)c(S(=O)(=O)NCC(c2cccs2)S(=O)(=O)c2ccc(F)cc2)c1", "note": "(stereo unspecified)", "survival": "inactive: 124%"}, {"smiles": "COc1cccc(N2CCN(C(=O)CN3CCSc4ccccc43)CC2)c1", "survival": "inactive: 59%"}, {"smiles": "COc1ccccc1CNc1ncnc2c1cnn2-c1ccc(C)cc1", "survival": "inactive: 66%"}, {"smiles": "O=C(c1cc2c(=O)oc3ccccc3c2s1)N1CCN(c2ccccc2)CC1", "survival": "inactive: 144%"}, {"smiles": "COc1ccc2c(c1)c1c(c(=O)n(-c3cccc(C)c3)c(=O)n1Cc1cccc(Cl)c1)n2C", "survival": "inactive: 72%"}, {"smiles": "Cc1ccc(-n2nc(C)c3c(C)cc(=O)n(CC(=O)Nc4cccc(C)c4C)c32)cc1", "survival": "inactive: 124%"}, {"smiles": "O=C(Nc1cc2c(cc1C(=O)c1ccccc1Br)OCCO2)c1cccc(Cl)c1", "survival": "inactive: 71%"}, {"smiles": "Cc1ccc(-c2noc(-c3nnn(-c4cccc(C(F)(F)F)c4)c3N)n2)cc1", "survival": "inactive: 96%"}, {"smiles": "COc1ccc(C(C(=O)NC2CCCCC2)N(Cc2ccc3c(c2)OCO3)C(=O)c2cnccn2)cc1OC", "note": "(stereo unspecified)", "survival": "inactive: 89%"}, {"smiles": "COc1ccc(-c2nn(-c3ccccc3)cc2C2NC(=O)NC(C)=C2C(=O)OC(C)C)cc1OC", "note": "(stereo unspecified)", "survival": "inactive: 73%"}, {"smiles": "O=S(=O)(c1ccc2nc(N3CCN(c4ccccc4F)CC3)ccc2c1)N1CCCCC1", "survival": "inactive: 111%"}, {"smiles": "COc1ccc(N2C(=O)CSC23C(=O)N(Cc2cccc(F)c2)c2ccccc23)cc1Cl", "note": "(stereo unspecified)", "survival": "inactive: 92%"}, {"smiles": "Cc1nc(-n2nc(C)c(CCC(C)C)c2C)sc1C(=O)Nc1ccc(Cl)cc1", "survival": "inactive: 89%"}, {"smiles": "Cc1ccc(NC(=O)c2ccc(=O)n(Cc3ccccc3C)c2)c(C)c1", "survival": "inactive: 78%"}, {"smiles": "CCOC(=O)c1c(S(=O)(=O)N2CCCC(C(=O)NCc3ccccc3OC)C2)c(C)n(C)c1C", "note": "(stereo unspecified)", "survival": "inactive: 105%"}, {"smiles": "CCc1nc(SC)ncc1C(=O)N1CCN(c2cc(C)ccc2C)CC1", "survival": "inactive: 79%"}, {"smiles": "Cc1ccc(CN2CCCn3nc(C(=O)NCCc4cccc(C)c4)cc3C2=O)cc1", "survival": "inactive: 77%"}, {"smiles": "COC(=O)c1cnn2c(C(F)(F)F)cc(-c3ccccc3)nc12", "survival": "inactive: 93%"}, {"smiles": "CCc1ccccc1NC(=O)CSc1nc2c(oc3ccccc32)c(=O)n1C", "survival": "inactive: 88%"}, {"smiles": "NC(=O)C1CCN(S(=O)(=O)c2ccc(N3CCCCS3(=O)=O)cc2)CC1", "survival": "inactive: 135%"}, {"smiles": "Cc1ccc(-c2nc(N3CCCC(C)C3)c3ccccc3n2)cc1", "note": "(stereo unspecified)", "survival": "active: -2%"}, {"smiles": "COc1ccc(CCNCc2ccc3c(c2)n(C)c(=O)n3C)cc1OC", "survival": "inactive: 111%"}, {"smiles": "Cc1ccc(CNC(=O)c2ccc3c(O)c(S(=O)(=O)c4ccc(Cl)cc4)c(=O)[nH]c3c2)cc1", "survival": "inactive: 86%"}, {"smiles": "COc1cccc(CNC(=O)C2CCCN(c3nc4ccccc4n4cccc34)C2)c1", "note": "(stereo unspecified)", "survival": "inactive: 77%"}, {"smiles": "Cc1nn(C)c2c1c(-c1ccccc1)cc(=O)n2CC(=O)NC(C)C", "survival": "inactive: 70%"}, {"smiles": "Cc1ccc(CN2CCCn3nc(C(=O)NCCc4ccccc4Cl)cc3C2=O)cc1", "survival": "inactive: 65%"}, {"smiles": "Cc1ccc(C(=O)Nc2cccc(C(=O)OCc3cc(=O)n4nc(C5CC5)sc4n3)c2)cc1", "survival": "inactive: 55%"}, {"smiles": "Clc1ccc(Nc2c(-c3ccccc3Cl)nc3ccc(Cl)cn23)cc1", "survival": "inactive: 25%"}, {"smiles": "Cc1nc(NCCCCCO)c2nnn(Cc3ccc(F)cc3)c2n1", "survival": "inactive: 99%"}, {"smiles": "COc1ccc(C)cc1NC(=O)c1cc(S(=O)(=O)N2CCN(c3cccc(C)c3C)CC2)ccc1F", "survival": "inactive: 153%"}, {"smiles": "CCOc1ccc(N2CC(NC(=O)C3CC3)CC2=O)cc1", "note": "(stereo unspecified)", "survival": "inactive: 66%"}, {"smiles": "O=S(=O)(NC1CC2CCC1C2)c1ccc2c(c1)OCCO2", "note": "(stereo unspecified)", "survival": "inactive: 125%"}, {"smiles": "COc1ccc(-n2nc(C(=O)NCc3ccc(F)cc3Cl)c3c4ccccc4n(C)c3c2=O)cc1Cl", "survival": "inactive: 80%"}, {"smiles": "COCC(C)Nc1ncnc2c1cnn2-c1ccc(C)c(C)c1", "note": "(stereo unspecified)", "survival": "inactive: 59%"}, {"smiles": "CCCOc1ccc(C2CC(=O)Nc3c2c(=O)n(C)c(=O)n3C)cc1OC", "note": "(stereo unspecified)", "survival": "inactive: 84%"}, {"smiles": "O=C(CNC(=O)c1cccs1)c1ccc(F)cc1", "survival": "inactive: 112%"}, {"smiles": "O=CN(Cc1ccco1)C1(C(=O)NC2CCCCC2)CCCCC1", "survival": "inactive: 101%"}, {"smiles": "CCCCN(CC)CCCNC(=O)Cn1ncc2c3ccccc3n(Cc3ccc(F)cc3)c2c1=O", "survival": "inactive: 81%"}, {"smiles": "CC(NC(=O)c1ccc2c(c1)sc1nc(-c3ccccc3)cn12)C12CC3CC(CC(C3)C1)C2", "note": "(stereo unspecified)", "survival": "inactive: 81%"}, {"smiles": "Cn1c(=O)c(=O)n(C)c2cc(S(=O)(=O)N3CCN(c4ccccc4)CC3)ccc21", "survival": "inactive: 78%"}, {"smiles": "O=C(Nc1ccc2nc(-c3ccccc3)[nH]c2c1)c1ccco1", "survival": "active: 1%"}, {"smiles": "Cc1cccc(C(=O)Oc2c(Sc3ccccc3)c(C)nn2C(C)(C)C)c1", "survival": "inactive: 63%"}, {"smiles": "COc1ccc(Nc2c3c(nc4nncn24)CCC3)cc1OC", "survival": "inactive: 85%"}, {"smiles": "Cc1ccc(Nc2ncccc2C(=O)NC2CCCCC2)cc1", "survival": "inactive: 110%"}, {"smiles": "COc1ccc(S(=O)(=O)NCc2nc3nc(C)cc(C)n3n2)cc1OC", "survival": "inactive: 82%"}, {"smiles": "COc1ccc(CNC(=O)CSc2c3c(nc4ccc(Cl)cc24)CCCC3)cc1", "survival": "inactive: 76%"}, {"smiles": "CCc1nn(CC(=O)Nc2ccc(NC(C)=O)cc2)c(=O)c2cc3sccc3n12", "survival": "inactive: 86%"}, {"smiles": "O=C(CN(Cc1ccccc1Cl)C(=O)c1ccc(CN2CCOCC2)o1)NCc1ccccc1", "survival": "inactive: 115%"}, {"smiles": "NC(Cc1ccc2nonc2c1)C(=O)O", "note": "(stereo unspecified)", "survival": "inactive: 102%"}, {"smiles": "CCOC(=O)c1ccc(N2C(=O)c3n[nH]c(-c4ccco4)c3C2c2cccc(O)c2)cc1", "note": "(stereo unspecified)", "survival": "inactive: 16%"}, {"smiles": "CCOc1ccc(NC(=O)N2CCN3CCCCC3C2)cc1", "note": "(stereo unspecified)", "survival": "inactive: 80%"}, {"smiles": "COCCNC(=O)CN1C(=O)c2cccnc2Oc2ccc(Cl)cc21", "survival": "inactive: 80%"}, {"smiles": "Cc1ccc(S(=O)(=O)N(CCc2ccccc2)CC(=O)Nc2ccc(Br)cc2)cc1", "survival": "inactive: 95%"}, {"smiles": "CCc1cccc(CC)c1NC(=O)CCS(=O)(=O)c1ccc2c(c1)CCN2C(C)=O", "survival": "inactive: 93%"}, {"smiles": "O=[N+]([O-])c1cc(-c2nc(-c3ccccc3)no2)ccc1N1CCOCC1", "survival": "inactive: 85%"}, {"smiles": "COc1ccc(-c2nc(CCNC(=O)c3ccc(Br)o3)cs2)cc1", "survival": "inactive: 124%"}, {"smiles": "CCOc1ccccc1NC(=O)C1=C(C)Nc2ncnn2C1c1ccc(C)o1", "note": "(stereo unspecified)", "survival": "inactive: 79%"}, {"smiles": "CCc1ccccc1NC(=O)Cn1c(SCc2ccc(F)cc2)nc2ccncc21", "survival": "inactive: 48%"}, {"smiles": "Cc1cccc(NC(=O)c2oc3ccccc3c2NC(=O)Cc2coc3ccc(C(C)C)cc23)c1", "survival": "inactive: 95%"}, {"smiles": "CC1(C)CC(=O)C2=C(C1)NCN(Cc1ccccc1)C2", "survival": "inactive: 108%"}, {"smiles": "COc1ccc(-c2nc(CNS(=O)(=O)c3cccc(F)c3)cs2)cc1", "survival": "inactive: 81%"}, {"smiles": "O=C(CCCn1c(=O)c2cccn2c2ccccc21)NCc1ccccc1Br", "survival": "inactive: 55%"}, {"smiles": "O=C(NC1CCCCC1)C(c1ccc(F)cc1)N(Cc1ccco1)C(=O)c1ccccn1", "note": "(stereo unspecified)", "survival": "inactive: 97%"}, {"smiles": "CC1CCN(C(=O)C2COc3ccccc3C2)CC1", "note": "(stereo unspecified)", "survival": "inactive: 65%"}, {"smiles": "Cc1ccc(Nc2sc(C(=O)c3ccccc3)c(N)c2C(N)=O)cc1", "survival": "inactive: 130%"}, {"smiles": "CNC(=O)c1cnc2sc(N3CCCCCC3)nn2c1=O", "survival": "inactive: 115%"}, {"smiles": "CCOc1ccc(N(CC)C(=O)CCc2nc(-c3ccccc3F)no2)cc1", "survival": "inactive: 39%"}, {"smiles": "COc1ccc(C(=O)Nc2nc3ccccc3n2CCOc2ccc(Cl)cc2)cc1", "survival": "active: 4%"}, {"smiles": "Cc1cccn2c(=O)cc(CSc3nnc(NC(=O)c4ccc(F)cc4)s3)nc12", "survival": "inactive: 84%"}]}]}
